The values below come from the supplement of paper PMC7826260.

This is one part of the list. Cleavage of a single-stranded DNA pool by Rep nickase domains was read by sequencing for 1 h at 37 °C with 3 µM enzyme; only the middle of the 90-letter strands is printed. A value is the log2 ratio of uncut reads to the pool without enzyme; uncut sequences lie near 0, cut ones below; no hit call is given. Reads are scaled to the total; where an enzyme cuts many sequences, the uncut ones exceed 0.

The test system of this test is T1, Rep nickase domain of tomato golden mosaic virus.
T1 sequence (residues 1-124 of Rep, tag left off): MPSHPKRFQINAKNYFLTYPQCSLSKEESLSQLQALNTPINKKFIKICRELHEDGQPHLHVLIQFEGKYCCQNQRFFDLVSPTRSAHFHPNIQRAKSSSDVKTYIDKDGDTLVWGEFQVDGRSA
Description: uncleaved DNA left, log2 of reads against the no-enzyme library (log2 ratio); higher = less cleavage (more negative = more Rep cleavage of the k-mer); sequences stand for … in CTCGTCCG…ACCGGAGA
As to the method: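 A pool of 90-nt single-stranded DNAs with seven random bases just before the constant AC of the nick site (name = the seven bases) was cut by 3 µM recombinant His6-SUMO-tagged Rep nickase domain (300 nM DNA, 50 mM HEPES pH 8.0, 50 mM NaCl, 1 mM MnCl2, 1 h, 37 °C, three replicates). Uncut DNA was amplified and sequenced.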
For the sequence CCGCAGG, the “uncleaved DNA left (log2)” value is -0.0527.

Consider AGTCACG, for which the “uncleaved DNA left (log2)” value was -0.0868. As to CAGATCC, the “uncleaved DNA left (log2)” value was -0.0872. The figure for ACTCGCA is 0.023.

Turning to CGCACGT, the “uncleaved DNA left (log2)” value was -0.095. The value for AGGCTGT was -0.0192; that for ACGGTGA was -0.12; that for ATCGGTT was 0.015.

With AAGCGAT, the “uncleaved DNA left (log2)” value came to 0.183. The figure for ACTAACG is -0.0766; for GAGGCTC it is 0.0993. The figure for TATGCTC is -0.229; for GATTTAC it is -0.11; for TTGAATT it is -0.0788.

With TAGTTTG, the “uncleaved DNA left (log2)” value came out at 0.0163. TTTGCAG: the “uncleaved DNA left (log2)” value is 0.027. The figure for ATAGGGA is 0.17; for TACCAGT it is -0.0222. GACGTTT: the “uncleaved DNA left (log2)” value came out at 0.0104. The figure for AAGCCGC is -0.0783; for GCTGCAT it is -0.0265; for AGCACTA it is 0.0969.

Regarding TGTGCGG, the “uncleaved DNA left (log2)” value is -0.0808.

As for ATTCTGA, the “uncleaved DNA left (log2)” value is -0.0263. With ACTATCC, the “uncleaved DNA left (log2)” value is -0.0522. The value for TTCACTG was -0.206; that for ACCGAGT was -0.02; that for ACACGAC was 0.0492. With ACAGTCA, the “uncleaved DNA left (log2)” value was -0.0662. The value for TTGGCTC was -0.116; that for CTATGGC was -0.132.

On to TTCTGTG, for which the “uncleaved DNA left (log2)” value was determined as 0.01. As to TGAGACT, the “uncleaved DNA left (log2)” value was -0.146. As to AGCGTGA, the “uncleaved DNA left (log2)” value amounted to 0.101. The value for AGCCGGT was 0.0679; that for TGCTTTC was -0.0087; that for CTAAACT was -0.0123. The value for GTTTGTC was 0.0887; that for TAACAAC was -0.0787; that for CGCGCGT was -0.113.
